Where “and” joins values, the source holds several entries; their conditions need not be identical. Equal entries are not always repeated. The whole screen tested about 230,000 compounds, of which about 3,600 (1.6%) were called active. The shares of active, inactive and inconclusive entries below differ from those in the screen. The call rests on the fitted dose curve; in most records, active means well fitted inhibition curve with a large enough effect (not every such curve was filed as active); inconclusive means small, poorly fitted or top-dose-only effect, or another doubt; inactive means no such curve, though single readings can be large or run the other way. Potencies of inconclusive entries are doubtful fits and often do not repeat. Some structures have more than one record in an assay (separate samples or runs), and their calls can disagree.
Target: Lysine-specific demethylase 4E (Homo sapiens) (UniProt B2RXH2)
Chain of UniProt B2RXH2 (B2RXH2 whole entry, looked up, the tested form may be a part): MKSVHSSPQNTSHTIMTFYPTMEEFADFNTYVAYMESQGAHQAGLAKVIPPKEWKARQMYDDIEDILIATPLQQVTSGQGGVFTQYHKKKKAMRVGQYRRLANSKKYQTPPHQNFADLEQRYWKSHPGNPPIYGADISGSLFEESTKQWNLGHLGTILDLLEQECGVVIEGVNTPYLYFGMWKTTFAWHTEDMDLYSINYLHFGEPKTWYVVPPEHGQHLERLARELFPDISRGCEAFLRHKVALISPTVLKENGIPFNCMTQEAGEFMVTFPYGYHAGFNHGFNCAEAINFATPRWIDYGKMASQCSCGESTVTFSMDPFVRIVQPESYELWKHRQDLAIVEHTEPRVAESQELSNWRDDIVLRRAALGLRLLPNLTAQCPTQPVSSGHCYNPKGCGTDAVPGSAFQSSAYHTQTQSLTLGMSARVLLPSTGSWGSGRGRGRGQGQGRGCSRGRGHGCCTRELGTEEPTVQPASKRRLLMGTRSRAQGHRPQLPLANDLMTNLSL
Assay: qHTS Assay for Inhibitors of Human Jumonji Domain Containing 2E (JMJD2E)
Settings: JMJD2E catalytic domain, FDH-coupled NADH fluorescence (FDH is formaldehyde dehydrogenase); series mostly up to 57.1 µM; activity change, negative = inhibition: at the top concentration
Further: nearly all actives have a fitted effect of over 50% in size.
Potency means the concentration at half of the fitted maximal effect; tags describe the fitted curve by direction and shape.
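Wherever activity change, negative = inhibition is given: 0% = wells with enzyme and -100% = buffer wells without enzyme.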

| Compound | activity change, negative = inhibition | Potency |
| --- | --- | --- |
| COc1ccc(N2CS(=O)CC2=O)cc1 (stereo not drawn) | inactive: -3.62% | – |
| CCCc1c(C)c2c(C)[nH]nc2oc1=O | – | inconclusive: 22.4 µM [inhibitor, single point] |
| N#CCCN1CCN(C(=S)c2ccc(-c3cccc(Cl)c3)o2)CC1 | inactive: -15.6% | – |
| COC1=C/C(=C/c2c(N)n3cc(C)sc3nc2=O)C=CC1=O | – | inconclusive: 20 µM [inhibitor, single point] |
| Cc1c(C(=O)O)cnc2cc(-c3ccc(Cl)cc3)nn12 | – | inconclusive: 28.2 µM [inhibitor, partial curve] |
| N#C/C(C(=O)NCc1ccccc1)=C1/N=C(NC(=O)c2cccs2)c2ccccc21 | – | inconclusive: 35.5 µM [inhibitor, single point] |
| COc1cccc(C2c3c(C)nn(-c4ccc([N+](=O)[O-])cc4)c3N=C3C(=O)Nc4ccccc4N32)c1 (stereo not drawn) | inactive: 9.95% | – |
| NC(=O)c1cc(Br)cc(C2CCCCC2)c1O | – | inconclusive: 35.5 µM [inhibitor, partial curve] |
| O=C(c1ccc2c(c1)OCO2)C1CCCN(C(=O)NCc2ccccc2)C1 (stereo not drawn) | inactive: -4.25% | – |
| Cc1onc(-c2ccccc2)c1C(=O)NC(=S)Nc1sc2c(c1C#N)CCCC2 | inactive: -4.17% | – |
| COc1ccc(-c2nc(N)n[nH]2)cc1 | – | inconclusive: 39.8 µM [inhibitor, single point] |
| Cc1ccnc(NC(c2ccncc2)c2c(C)[nH]c3ccccc23)c1 (stereo not drawn) | – | inconclusive: 28.2 µM [inhibitor, single point] |
| CS(=O)(=O)c1ccc(Sc2nc3ccccc3s2)c([N+](=O)[O-])c1 | inactive: 5.78% | – |
| CCOc1ccc2c(c1)C(C)=CC(C)(C)N2 | – | inconclusive: 12.6 µM [inhibitor, partial curve] and inconclusive: 25.1 µM [inhibitor, partial curve] |
| Cc1ccc(NC(=O)c2oc3ccc(S(=O)(=O)N4CCOCC4)cc3c2C)cc1C | – | inconclusive: 25.1 µM [inhibitor, partial curve] |
| Cc1cc(C)cc(NC(=O)CSc2ccc(-c3ccco3)nn2)c1 | inactive: -0.162% | – |
| S=C(Nc1ccccc1)N1N=C(c2cccs2)CC1c1cccs1 (stereo not drawn) | – | inconclusive: 28.2 µM [inhibitor, single point] |
| CCN(CC)CCNc1ccnc2cc(Cl)ccc12 | – | inconclusive: 28.2 µM [inhibitor, single point] |
| COc1ccc(OC)c(-c2nnc(-c3ccc(C)o3)o2)c1 | – | inconclusive: 28.2 µM [inhibitor, partial curve] |
| CCn1c(=O)c(-c2nc3ccccc3[nH]2)c(O)c2ccccc21 | – | inconclusive: 8.91 µM [inhibitor, full curve] |
| Cn1c(-c2ccc3c(c2)OCO3)cnc1NCc1ccccc1 | – | inconclusive: 25.1 µM [inhibitor, single point] |
| CCN(CC)Cc1cc(C(C)=O)ccc1OCC(C)C | inactive: -4.97% | – |
| Cc1nc2c(c3c1[nH]c1ccccc13)C(O)CC(C)(C)C2 (stereo not drawn) | – | inconclusive: 31.6 µM [inhibitor, partial curve] |
| O=C(Nc1cccc(F)c1)N1CC=C(c2ccc(Cl)cc2)CC1 | inactive: -22.5% | – |
| Cc1cc(C)n(-c2nc3c(c(=O)[nH]c(=O)n3C)n2Cc2cccc(Br)c2)n1 | inactive: 1.89% | – |

| Compound | activity change, negative = inhibition | Potency |
| --- | --- | --- |
| Cc1oc(C(=O)O)cc1COc1ccc2c(C)cc(=O)oc2c1 | – | inconclusive: 31.6 µM [inhibitor, partial curve] |
| COc1cc2c(cc1OC)C(c1ccc(-c3cc(Cl)ccc3Cl)o1)=NCC2 | – | inconclusive: 3.55 µM [inhibitor, single point] |
| CCn1nc(NC(=O)c2ccncc2)c2cc3ccc(C)cc3nc21 | – | inconclusive: 39.8 µM [inhibitor, single point] |
| Cc1cc(/C=C2\C(=N)N3N=C(c4ccco4)SC3=NC2=O)c(C)n1Cc1ccccc1 | – | inconclusive: 39.8 µM [inhibitor, single point] |
| Cc1c(C(=O)NCc2cccs2)oc2ccccc12 | inactive: 0.584% | – |
| C=CCSc1nc(C)cc(/C=C\c2ccccc2)c1C#N | – | inconclusive: 3.98 µM [inhibitor, single point] |
| C/C(O)=C/c1nc2ccccc2[nH]c1=O | – | inconclusive: 35.5 µM [inhibitor, partial curve] |
| CSc1ccc(Cl)c(C(=O)OCC(=O)N2CCOCC2)c1 | – | inconclusive: 35.5 µM [inhibitor, single point] |
| Cc1ccc(-c2nc3ccc(C(=O)O)cc3nc2-c2ccc(C)cc2)cc1 | – | inconclusive: 28.2 µM [inhibitor, partial curve] |
| S=c1[nH]nc(COc2ccccc2)n1/N=C/C=C/c1ccco1 | – | inconclusive: 35.5 µM [inhibitor, single point] |
| COc1ccc2c(c1)O[C@@H](c1cccc(C(F)(F)F)c1)[C@H](OC(=O)Nc1ccc(OC(F)F)cc1)C2=O | – | inconclusive: 20 µM [inhibitor, single point] and inconclusive: 22.4 µM [inhibitor, single point] |
| O=c1c2cc(Cl)ccc2nc(-c2ccccc2)n1O | – | inconclusive: 25.1 µM [inhibitor, single point] |
| Cc1c(OCc2nn[nH]n2)ccc2c(-c3ccccc3)cc(=O)oc12 | – | inconclusive: 28.2 µM [inhibitor, single point] |
| CC(C)(C)SCCNS(=O)(=O)c1ccc2ccccc2c1 | inactive: 4.05% | – |
| COc1ccc(-c2nc3cnccn3c2Nc2ccc(C)cc2)cc1 | – | inconclusive: 22.4 µM [inhibitor, partial curve] |
| Cc1cccc(N2CCN(CC(=O)Nc3ccccc3[N+](=O)[O-])CC2)c1C | inactive: -4.64% | – |
| O=C(CNC(=O)c1ccccc1Br)N/N=C/c1cc(Br)ccc1O | – | inconclusive: 35.5 µM [inhibitor, single point] |
| CC(=O)c1sc(Nc2cccc(C)c2)nc1C | – | inconclusive: 14.1 µM [inhibitor, single point] |
| CSc1nn2c(C)c(C)c(C)nc2c1C#N | – | inconclusive: 7.94 µM [inhibitor, full curve] |
| Cc1ccc(-c2nnc(NCc3nc4ccccc4[nH]3)c3ccccc23)cc1S(=O)(=O)N(C)C | – | inconclusive: 35.5 µM [inhibitor, single point] |
| Cc1nnc(NC(=O)CSc2nnc(-c3ccco3)o2)s1 | inactive: -6.23% | – |
| O=C(O)C1CCCCC1C(=O)Nc1ccccc1Cl (stereo not drawn) | inactive: 2.02% | – |
| CCC(CC)(CC(=O)Nc1cccc(/C=C/c2nc(C3CCC3)cs2)c1)C(=O)O | – | inconclusive: 25.1 µM [inhibitor, partial curve] |
| C[Si](C)(C)C#Cc1ccccc1NC(=S)Nc1ccccc1 | – | inconclusive: 39.8 µM [inhibitor, single point] |
| N#C/C(=C\c1ccc(O)cc1)c1nc2ccccc2o1 | inactive: -5.16% | – |

| Compound | activity change, negative = inhibition | Potency |
| --- | --- | --- |
| N#Cc1cccc(C#N)c1Oc1ccc(S(=O)(=O)Nc2ccc(Cl)cc2)cc1 | inactive: -11.3% | – |
| CN(CC1CCCO1)S(=O)(=O)c1ccc(C(=O)Nc2nc(-c3ccccn3)cs2)cc1 (stereo not drawn) | – | inconclusive: 39.8 µM [inhibitor, single point] |
| CCCCOC(=O)/C=C\C(=O)OCCCC | inactive: 0.383% | – |
| Cc1sc(NC(=O)/C=C/c2ccc3c(c2)OCO3)nc1-c1ccccc1 | inactive: -0.62% | – |
| COC(=O)c1ccc(N2CCN(C)CC2)c(NC(=O)COc2ccc(OC)cc2)c1 | – | inconclusive: 39.8 µM [inhibitor, single point] |
| CCOC(=O)NC(C(F)(F)F)(C(F)(F)F)P(=O)(c1ccccc1)c1ccccc1 | – | inconclusive: 39.8 µM [inhibitor, single point] |
| CCn1c(=O)c2cc(C(=O)Nc3cccc(C(C)=O)c3)sc2c2ccccc21 | – | inconclusive: 20 µM [inhibitor, partial curve] |
| CCCS(=O)(=O)Nc1ccc2cn[nH]c2c1 | inactive: -5.18% | – |
| CCc1ccc2[nH]c(=O)c(CN(CCN(CC)CC)C(=S)NCc3ccco3)cc2c1 | – | inconclusive: 7.08 µM [inhibitor, single point] |
| OCCNc1nc(-c2ccccc2)c2ccccc2n1 | – | inconclusive: 28.2 µM [inhibitor, partial curve] |
| CN=c1scc(-c2ccco2)n1/N=C/c1ccc(O)c(O)c1 | – | active: 25.1 µM |
| O=C(CSC1=Nc2ccccc2C2CC=NN12)Nc1ccc(F)cc1Cl (stereo not drawn) | – | inconclusive: 31.6 µM [inhibitor, single point] |
| C/C(=N\NC(=O)C(N)=O)c1ccc(Br)cc1 | inactive: 8.24% | – |
| Cc1ccc(/C=c2\sc3nc(-c4ccccc4Br)nn3c2=O)o1 | inactive: -15.6% | – |
| C=NC(C(=O)NC1C(=O)N2C1SC(C)(C)C2C(=O)O)c1ccccc1 (stereo not drawn) | – | inconclusive: 31.6 µM [inhibitor, partial curve] |
| CC(C)COCC(CN(Cc1ccccc1)c1ccccc1)N1CCCC1 (stereo not drawn) | – | active: 14.1 µM |
| N=C1/C(=C\c2ccc(SCc3ccco3)o2)C(=O)N=C2SC=NN12 | – | active: 28.2 µM |
| CCC(=O)NCCc1cc2cc(C)c(C)cc2[nH]c1=O | – | inconclusive: 28.2 µM [inhibitor, partial curve] |
| Cc1ccc(-c2nnn(CC(=O)N(Cc3cccs3)C(C(=O)NC3CCCC3)c3ccncc3)n2)cc1 (stereo not drawn) | – | inconclusive: 28.2 µM [inhibitor, single point] |
| Cn1nc(C(C)(C)C)cc1C(=O)Nc1nc2c(s1)C(=O)CC(C)(C)C2 | inactive: -26.7% | – |
| CCOc1ccc(-c2nnc(-c3ccncc3)o2)cc1 | – | inconclusive: 28.2 µM [inhibitor, partial curve] |
| CC1CN(c2oc(-c3ccco3)nc2C#N)CC(C)O1 (stereo not drawn) | – | inconclusive: 14.1 µM [inhibitor, partial curve] |
| S=C(Nc1ccccc1)N1CCCCC1 | inactive: -9.49% | – |

Source: PubChem BioAssay AID2147 (National Center for Advancing Translational Sciences (NCATS), 2009)
